Measurements: PubChem BioAssay AID504832 (National Center for Advancing Translational Sciences (NCATS), 2011)
In all, about 310,000 compounds went through this assay and about 18,000 (5.8%) were called active. Inconclusive means that the source gave no clear call. Such entries were picked first, then a sample of the others. The call rests on the fitted dose curve; in most records, active means well fitted inhibition curve with a large enough effect; inconclusive means small, poorly fitted or top-dose-only effect, or another doubt; inactive means no such curve, though single readings can be large or run the other way. Potencies of inconclusive entries are left out as doubtful fits.

Test: Primary qHTS for delayed death inhibitors of the malarial parasite plastid, 48 hour incubation
Conditions: P. falciparum luciferase growth in erythrocytes; series mostly up to 28.7 µM
Method in brief: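 Luciferase-expressing parasites in RBCs, 2% Hct / 0.1% parasitemia final; RPMI 1640 + 0.5% Albumax; 37 C, 5% CO2, one generation; luminescence read-out, lower signal = inhibition.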
Potency means the concentration at half of the fitted maximal effect; tags describe the fitted curve by direction and shape.

| SMILES | Potency |
| --- | --- |
| COC(=O)c1ccc(NC(=O)CSc2nnc(COc3ccccc3)n2C)cc1 | active: 8.28 µM |
| NC(=O)c1nsc(C(=O)N(Cc2cccnc2)C(C(=O)NC2CCCC2)c2ccc(F)cc2)c1N (stereo not drawn) | inconclusive [inhibitor, partial curve, poor fit] |
| O=C(O)c1cccc2c1C(=O)N(c1ccccc1)C2 | inconclusive [inhibitor, partial curve, poor fit] |
| CC(=O)c1cccc(NC(=O)C(C)OC(=O)c2ccc(-n3cnnn3)cc2)c1 (stereo not drawn) | active: 10.4 µM |
| Cc1ccc2nc(NC(=O)C3CC(=O)N(Cc4ccco4)C3)sc2c1 (stereo not drawn) | inconclusive [inhibitor, full curve, poor fit] |
| COc1ccc(CC(=O)NNC(=O)COc2ccc(Cl)cc2C)cc1S(=O)(=O)N1CCOCC1 | inactive |
| CC1CCC(NC(=O)C2CC(=O)N(c3ccc4c(c3)OCCO4)C2)CC1 (stereo not drawn) | inactive |
| O=c1c2ccccc2nc(CSc2nnnn2-c2ccccc2)n1-c1ccccc1Cl | inconclusive [inhibitor, single point] |
| CN1CCN(CCCNC(=O)c2ccc(Cn3c(=S)[nH]c4ccc(Br)cc4c3=O)cc2)CC1 | inconclusive [inhibitor, single point] |
| CC1CCN(C(=O)c2ccccc2SCC(=O)NCC2CCCCC2)CC1 | inconclusive [inhibitor, single point] |
| O=C(/C=C/c1cccs1)c1ccc(NC(=O)c2cccc(Br)c2)cc1 | inconclusive [inhibitor, single point] |
| Cc1sc2ncnc(OCC(=O)NC(C)C)c2c1C | inconclusive [inhibitor, partial curve, poor fit] |
| Clc1ccc(-c2nnc3sc(-c4ccc(Br)o4)nn23)cc1 | inconclusive [inhibitor, partial curve, poor fit] |
| COc1cccc(OCc2cc(C(=O)N3CCN(c4ccccc4O)CC3)no2)c1 | inactive |
| O=C(CSc1nc(=O)n(CCN2CCOCC2)c2c1CCC2)Nc1ccc(OC(F)(F)F)cc1 | active: 10.4 µM |
| COC(=O)C1=C(Nc2ccc(OC)cc2)C=C(C)C(C(=O)OC)C1c1ccc(C)cc1 (stereo not drawn) | active: 10.4 µM |
| O=C(c1cnc2n(c1=O)CCS2)N1CCN(c2ccc([N+](=O)[O-])cc2)CC1 | inactive |
| COc1ccc2[nH]c(C)c(CCNCc3cc(OC)c4c(c3)OCO4)c2c1 | active: 7.38 µM |
| COc1ccccc1N1CCN(C(=O)c2sc3nc(-c4ccccc4)cn3c2C)CC1 | inconclusive [inhibitor, single point] |
| CCCSc1cc(N)cc([N+](=O)[O-])c1 | inactive |
| NC(c1ccccc1)c1cccnc1 (stereo not drawn) | inactive |
| CN1CCc2c(C#N)c(Cl)nc(Cl)c2C1 | inactive |
| COC(CNC(=O)c1ccc2c(c1)ncn2-c1cccc(C)c1)OC | inactive |
| N#Cc1ccc(CSc2nnc(NC(=O)CCc3nc4ccccc4c(=O)[nH]3)s2)cc1 | inconclusive [inhibitor, partial curve] |
| Cc1ccccc1C(=O)NNC(=O)C1CCN(c2ncccn2)CC1 | inactive |

| SMILES | Potency |
| --- | --- |
| Cc1ccc(S(=O)(=O)N2CCOC2CNC(=O)C(=O)NCCN(C)C)cc1 (stereo not drawn) | inactive |
| CCn1cc(CNCc2cn(-c3ccccc3C)nc2-c2ccc(OC)c(F)c2)cn1 | inconclusive [inhibitor, single point] |
| O=C(NCCC(=O)N1CCN(c2cccc(Cl)c2)CC1)c1ccc(Br)cc1 | inconclusive [inhibitor, single point] |
| O=C(CSc1nnc(Cc2ccccc2)n1Cc1ccco1)NC1CCCC1 | inconclusive [inhibitor, partial curve, poor fit] |
| CC(c1ccccc1)N1CCC(CNC(=S)Nc2cccc(Cl)c2)C1 (stereo not drawn) | inconclusive [inhibitor, single point] |
| CCCCn1ccc(O)c(Cc2ccc(F)cc2)c1=O | inconclusive [inhibitor, partial curve, poor fit] |
| CC(C)CCNc1nc2c(cc1C#N)COC(C)(C)C2 | inconclusive [inhibitor, single point] |
| O=c1c(Cc2ccc(F)cc2)c(O)ccn1CCc1cnc[nH]1 | inconclusive [inhibitor, partial curve, poor fit] |
| COc1cc2cc(CN(Cc3cccnc3)C(=O)Nc3ccccc3)c(=O)[nH]c2cc1OC | inconclusive [inhibitor, partial curve] |
| COc1cccc(-c2cc3nc(-c4ccccc4)cc(N4CCC5(CC4)OCCO5)n3n2)c1 | active: 13.1 µM |
| O=C(c1ccc(Cl)c(F)c1F)N1CCCC1 | inactive |
| Cc1[nH]c2c(C)cccc2c1CCNC(=O)c1ccc2c(c1[N+](=O)[O-])C(=O)c1ccccc1C2=O | active: 11.7 µM |
| O=C(c1ccoc1)N1CCC2(CC1)Oc1ccc(F)cc1C(=O)C21CC(c2ccc(Cl)cc2)=NO1 (stereo not drawn) | inconclusive [inhibitor, single point] |
| O=c1c2ccccc2nc(SCc2cc(=O)n3ccsc3n2)n1CCCO | inactive |
| COc1ccccc1N1CCN(Cc2ccc(F)cc2)CC1 | inactive |
| O=C(OCc1cc(=O)n2ccsc2n1)c1ccc(O)cc1O | inactive |
| Cc1noc2c1C(c1ccc(N(C)C)cc1)C1=C(CC(C)(C)CC1=O)N2 (stereo not drawn) | inconclusive [inhibitor, single point] |
| COc1cc(CCC(=O)NC2(C)CCS(=O)(=O)C2)cc(OC)c1OC (stereo not drawn) | inconclusive [inhibitor, single point] |
| COc1ccc(C(=O)CN2C(=O)NC(C)(c3ccccc3)C2=O)cc1OC (stereo not drawn) | inactive |
| CC12CC(NC(=O)N1c1cccc(C(=O)NCc3ccccc3)c1)c1ccccc1O2 (stereo not drawn) | inconclusive [inhibitor, full curve] |
| COc1ccccc1CN1CCC(CNS(=O)(=O)c2cc(-c3onc(C)c3C)ccc2OC)CC1 | active: 11.7 µM |
| Cc1cc(C(=O)CSc2ncccn2)c(C)n1Cc1ccco1 | inactive |
| O=c1oc2ccccc2c(Nc2ccccc2)c1[N+](=O)[O-] | inconclusive [inhibitor, partial curve, poor fit] |
| CC(C)NC(=O)c1cc2n(n1)C(C(F)(F)F)CC(c1ccco1)N2 (stereo not drawn) | inconclusive [inhibitor, full curve, poor fit] |
| CCN(CC)CCCNC(=S)N1CCN(c2nc(-c3ccccc3)cs2)CC1 | inconclusive [inhibitor, full curve] |

| SMILES | Potency |
| --- | --- |
| C/C(CC(=O)Nc1ccc(N(C)C)cc1)=N\NC(=O)c1ccccc1O | inconclusive [inhibitor, single point] |
| CCOC(=O)CSc1n[nH]c(NC(=O)NC(C)C)n1 | inactive |
| CCOCCCn1c(C)nc2c(c1=O)c1nc3ccccc3nc1n2CCC1=CCCCC1 | inconclusive [inhibitor, single point] |
| O=C(CCN1C(=O)/C(=C\c2ccccc2F)SC1=S)N1CCCCC1 | inactive |
| O=C(C/C=N\O)Nc1ccc(Oc2ccccc2)cc1 | inconclusive [inhibitor, partial curve, poor fit] |
| CCCN1CCN(S(=O)(=O)c2ccc(-c3cc(C)no3)s2)CC1 | inactive |
| CCOc1ccc(NCc2cccn2-c2nnc(N3CCC(C(=O)NCCCN4CCCCC4CC)CC3)s2)cc1 (stereo not drawn) | inconclusive [inhibitor, partial curve] |
| Cc1c(NC(=S)NC(=O)c2ccco2)cccc1-c1nc2ncccc2o1 | inactive |
| COc1cccc(-c2cc(C(=O)N3CCN(C(=O)c4ccco4)CC3)[nH]n2)c1 | inconclusive [inhibitor, single point] |
| Cc1nn(-c2ccccc2)c(Cl)c1C(=O)NCC1CCCO1 (stereo not drawn) | inactive |
| Cc1oc(-c2ccc(F)cc2)nc1CN(Cc1ccccn1)CC1CCCO1 (stereo not drawn) | inconclusive [inhibitor, full curve, poor fit] |
| CCOC(=O)c1cc2c(ccn2C)n1CC(=O)N1CCCC(C)C1 (stereo not drawn) | inactive |
| CCCCn1c(N)c(N(CC(C)C)C(=O)C2CC(=O)N(c3ccccc3C(C)CC)C2)c(=O)[nH]c1=O (stereo not drawn) | inconclusive [inhibitor, single point] |
| COc1cc(/C=C2\SC(c3ccc(C)cc3)=NC2=O)cc(OC)c1O | inconclusive [inhibitor, partial curve] |
| Cc1ccccc1CN1CCN(CC(=O)NCCCN2CCN(c3ccc(F)cc3)CC2)C1=O | inconclusive [inhibitor, full curve] |
| COc1ccc(-c2n[nH]c(=S)n2Cc2ccccc2)cc1OC | inactive |
| O=S(=O)(c1ccc(SCc2ccc(Cl)cc2)nc1)N1CCCC1 | active: 11.7 µM |
| O=C(NCC1CCOCC1)c1cc(COc2ccc(F)cc2F)on1 | inactive |
| Nc1nc(N)nc(-c2cccc(Cl)c2)n1 | inactive |
| CCCS(=O)(=O)N1CCN(Cc2ccc3c(c2)c2ccccc2n3CC)CC1 | active: 9.28 µM |
| CCc1cc(-c2n[nH]c(C)c2-c2nc3ccccc3n2C)c(O)cc1O | inconclusive [inhibitor, partial curve] |
| Cc1cc(Cl)c(OCCCCNC(C)(C)C)c(Br)c1 | inactive |
| CN(C)c1ccc(-c2nc3n(n2)C(c2cccnc2)C2=C(CC(C)(C)CC2=O)N3)cc1 (stereo not drawn) | inconclusive [inhibitor, partial curve, poor fit] |
